The test has as its target T1, Halo-SETD2 1404–2564 (SETD2C) (human) (UniProt Q9BYW2).
T1 sequence: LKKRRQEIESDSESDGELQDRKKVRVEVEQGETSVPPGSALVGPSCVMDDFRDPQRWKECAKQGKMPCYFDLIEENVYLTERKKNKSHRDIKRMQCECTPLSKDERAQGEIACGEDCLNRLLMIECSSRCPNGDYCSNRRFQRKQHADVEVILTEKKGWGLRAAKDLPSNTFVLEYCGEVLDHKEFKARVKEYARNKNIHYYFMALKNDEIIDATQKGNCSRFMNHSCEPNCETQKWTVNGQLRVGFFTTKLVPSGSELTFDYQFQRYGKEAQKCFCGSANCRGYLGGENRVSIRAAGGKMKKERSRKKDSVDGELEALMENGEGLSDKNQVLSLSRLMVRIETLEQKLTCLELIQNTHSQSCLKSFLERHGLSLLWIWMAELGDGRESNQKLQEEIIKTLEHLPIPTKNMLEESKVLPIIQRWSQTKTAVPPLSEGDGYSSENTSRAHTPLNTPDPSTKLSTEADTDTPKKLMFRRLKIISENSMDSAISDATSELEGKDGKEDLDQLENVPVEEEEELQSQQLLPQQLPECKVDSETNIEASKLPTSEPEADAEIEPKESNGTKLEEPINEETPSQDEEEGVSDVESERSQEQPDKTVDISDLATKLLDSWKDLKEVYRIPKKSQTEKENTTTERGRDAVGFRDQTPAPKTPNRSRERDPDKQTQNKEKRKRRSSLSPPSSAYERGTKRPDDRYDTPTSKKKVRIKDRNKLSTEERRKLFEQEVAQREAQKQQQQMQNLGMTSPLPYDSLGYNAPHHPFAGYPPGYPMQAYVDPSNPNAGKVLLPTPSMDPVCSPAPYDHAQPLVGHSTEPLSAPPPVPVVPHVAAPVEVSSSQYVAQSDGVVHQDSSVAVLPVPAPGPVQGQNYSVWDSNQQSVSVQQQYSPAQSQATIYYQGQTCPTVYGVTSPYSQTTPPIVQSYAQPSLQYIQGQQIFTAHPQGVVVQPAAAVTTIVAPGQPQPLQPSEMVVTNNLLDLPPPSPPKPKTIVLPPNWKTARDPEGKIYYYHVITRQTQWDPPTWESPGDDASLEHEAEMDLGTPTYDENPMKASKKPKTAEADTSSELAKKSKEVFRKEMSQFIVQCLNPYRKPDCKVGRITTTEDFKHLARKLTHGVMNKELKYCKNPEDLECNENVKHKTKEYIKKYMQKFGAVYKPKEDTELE
In words: co-IP; Halo affinity purification from extracts of 293T cells co-expressing Halo-SETD2C and mCherry-HA-hnRNP L constructs; western blot with anti-HA; no RNase treatment.

These are yes or no findings as the source states them, for the method shown. In cells and extracts the contact can be indirect. Some binding calls cover weakened binding; strength is not graded here. Tags and fused reporters may be left off the sequences shown.

B1: mCherry-HA-hnRNP L 162–321 (domain or fragment, UniProt P14866 162-321)
chain: IYIAGHPAFVNYSTSQKISRPGDSDDSRSVNSVLLFTILNPIYSITTDVLYTICNPCGPVQRIVIFRKNGVQAMVEFDSVQSAQRAKASLNGADIYSGCCTLKIEYAKPTRLNVFKNDQDTWDYTNPNLSGQGDPGSNPNKRQRQPPLLGDHPAEYGGPH
On to B1, for which the binding entry is “binds”.

B2: mCherry-HA-hnRNP L 1–95 (domain or fragment, UniProt P14866 1-95)
chain: MSRRLLPRAEKRRRRLEQRQQPDEQRRRSGAMVKMAAAGGGGGGGRYYGGGSEGGRAPKRLKTDNAGDQHGGGGGGGGGAGAAGGGGGGENYDDP
In the case of B2, the binding entry is “no binding”.

B3: mCherry-HA-hnRNP L (1–589) (protein, UniProt P14866 1-589)
chain: MSRRLLPRAEKRRRRLEQRQQPDEQRRRSGAMVKMAAAGGGGGGGRYYGGGSEGGRAPKRLKTDNAGDQHGGGGGGGGGAGAAGGGGGGENYDDPHKTPASPVVHIRGLIDGVVEADLVEALQEFGPISYVVVMPKKRQALVEFEDVLGACNAVNYAADNQIYIAGHPAFVNYSTSQKISRPGDSDDSRSVNSVLLFTILNPIYSITTDVLYTICNPCGPVQRIVIFRKNGVQAMVEFDSVQSAQRAKASLNGADIYSGCCTLKIEYAKPTRLNVFKNDQDTWDYTNPNLSGQGDPGSNPNKRQRQPPLLGDHPAEYGGPHGGYHSHYHDEGYGPPPPHYEGRRMGPPVGGHRRGPSRYGPQYGHPPPPPPPPEYGPHADSPVLMVYGLDQSKMNCDRVFNVFCLYGNVEKVKFMKSKPGAAMVEMADGYAVDRAITHLNNNFMFGQKLNVCVSKQPAIMPGQSYGLEDGSCSYKDFSESRNNRFSTPEQAAKNRIQHPSNVLHFFNAPLEVTEENFFEICDELGVKRPSSVKVFSGKSERSSSGLLEWESKSDALETLGFLNHYQMKNPNGPYPYTLKLCFSTAQHAS
As to B3, the binding entry is reported as “binds”.

B4: mCherry-HA-hnRNP L 322–589 (domain or fragment, UniProt P14866 322-589)
chain: GGYHSHYHDEGYGPPPPHYEGRRMGPPVGGHRRGPSRYGPQYGHPPPPPPPPEYGPHADSPVLMVYGLDQSKMNCDRVFNVFCLYGNVEKVKFMKSKPGAAMVEMADGYAVDRAITHLNNNFMFGQKLNVCVSKQPAIMPGQSYGLEDGSCSYKDFSESRNNRFSTPEQAAKNRIQHPSNVLHFFNAPLEVTEENFFEICDELGVKRPSSVKVFSGKSERSSSGLLEWESKSDALETLGFLNHYQMKNPNGPYPYTLKLCFSTAQHAS
On to B4, for which the binding result is on record as “no binding”.

B5: mCherry-HA-hnRNP L 189–293 (domain or fragment, UniProt P14866 189-293)
chain: RSVNSVLLFTILNPIYSITTDVLYTICNPCGPVQRIVIFRKNGVQAMVEFDSVQSAQRAKASLNGADIYSGCCTLKIEYAKPTRLNVFKNDQDTWDYTNPNLSGQ
For the molecule B5, the binding result is reported as “binds”.

B6: mCherry-HA-hnRNP L 1–321 (domain or fragment, UniProt P14866 1-321)
chain: MSRRLLPRAEKRRRRLEQRQQPDEQRRRSGAMVKMAAAGGGGGGGRYYGGGSEGGRAPKRLKTDNAGDQHGGGGGGGGGAGAAGGGGGGENYDDPHKTPASPVVHIRGLIDGVVEADLVEALQEFGPISYVVVMPKKRQALVEFEDVLGACNAVNYAADNQIYIAGHPAFVNYSTSQKISRPGDSDDSRSVNSVLLFTILNPIYSITTDVLYTICNPCGPVQRIVIFRKNGVQAMVEFDSVQSAQRAKASLNGADIYSGCCTLKIEYAKPTRLNVFKNDQDTWDYTNPNLSGQGDPGSNPNKRQRQPPLLGDHPAEYGGPH
For the molecule B6, the binding result is listed as “binds”.

B7: mCherry-HA-hnRNP L 1–161 (domain or fragment, UniProt P14866 1-161)
chain: MSRRLLPRAEKRRRRLEQRQQPDEQRRRSGAMVKMAAAGGGGGGGRYYGGGSEGGRAPKRLKTDNAGDQHGGGGGGGGGAGAAGGGGGGENYDDPHKTPASPVVHIRGLIDGVVEADLVEALQEFGPISYVVVMPKKRQALVEFEDVLGACNAVNYAADNQ
On to B7, for which the binding result was “no binding”.

B8: mCherry-HA-hnRNP L 96–161 (domain or fragment, UniProt P14866 96-161)
chain: HKTPASPVVHIRGLIDGVVEADLVEALQEFGPISYVVVMPKKRQALVEFEDVLGACNAVNYAADNQ
For B8, the binding result is reported as “no binding”.

For the origin of these results see paper PMC7933334, “The methyltransferase SETD2 couples transcription and splicing by engaging mRNA processing factors through its SHI domain” (Nature Communications, 2021).
